Experimental data from a collection of fitness landscapes (doi:10.1126/science.1257360).
This is one part of the list.

B1: PhoQ; a variant is named by its letters at X, in order, P23837 (parent)
chain: MKKLLRLFFPLSLRVRFLLATAAVVLVLSLAYGMVALIGYSVSFDKTTFRLLRGESNLFYTLAKWENNKLHVELPENIDKQSPTMTLIYDENGQLLWAQRDVPWLMKMIQPDWLKSNGFHEIEADVNDTSLLLSGDHSIQQQLQEVREDDDDAEMTHSVAVNVYPATSRMPKLTIVVVDTIPVELKSSYMVWSWFIYVLSANLLLVIPLLWVAAWWSLRPIEALAKEVRELEEHNRELLNPATTRELTSLVRNLNRLLKSERERYDKYRTTLTDLTHSLKTPLXXLQXXLRSLRSEKMSVSDAEPVMLEQISRISQQIGYYLHRASMRGGTLLSRELHPVAPLLDNLTSALNKVYQRKGVNISLDISPEISFVGEQNDFVEVMGNVLDNACKYCLEFVEISARQTDEHLYIVVEDDGPGIPLSKREVIFDRGQRVDTLRPGQGVGLAVAREITEQYEGKIVAGESMLGGARMEVIFGRQHSAPKDE

Variants of: B1
Assay: enrichment ratio after two sorts for PhoP signalling (ratio (wild type AVST 3.29)); higher = more functional
Settings: with PhoP (E. coli)

Going from TCNG to LMAI, the enrichment ratio falls from 2.84 to ≤ 0.25.

WMCY and VEGY cannot be ordered by enrichment ratio: ≤ 0.25 for the first, ≤ 0.25 for the second.

IPFI and YCLH cannot be ordered by enrichment ratio: ≤ 0.25 for the first, ≤ 0.25 for the second.

HYPC and YWSK cannot be ordered by enrichment ratio: ≤ 0.25 for the first, ≤ 0.25 for the second.

YQCV and IYSW cannot be ordered by enrichment ratio: ≤ 0.25 for the first, ≤ 0.25 for the second.

WKQP and LPNV cannot be ordered by enrichment ratio: ≤ 0.25 for the first, ≤ 0.25 for the second.

LVYS and HLVV cannot be ordered by enrichment ratio: ≤ 0.25 for the first, ≤ 0.25 for the second.

QISY and IFST cannot be ordered by enrichment ratio: ≤ 0.25 for the first, ≤ 0.25 for the second.

REDT and EQYK cannot be ordered by enrichment ratio: ≤ 0.25 for the first, ≤ 0.25 for the second.

NELI and PYFG cannot be ordered by enrichment ratio: ≤ 0.25 for the first, ≤ 0.25 for the second.

KFHT and RYAH cannot be ordered by enrichment ratio: ≤ 0.25 for the first, ≤ 0.25 for the second.

SFPE and SGWD cannot be ordered by enrichment ratio: ≤ 0.25 for the first, ≤ 0.25 for the second.

IRYW and KIYQ cannot be ordered by enrichment ratio: ≤ 0.25 for the first, ≤ 0.25 for the second.

ILRC and PDII cannot be ordered by enrichment ratio: ≤ 0.25 for the first, ≤ 0.25 for the second.

FVKK and MDSY cannot be ordered by enrichment ratio: ≤ 0.25 for the first, ≤ 0.25 for the second.

TVVE and TMID cannot be ordered by enrichment ratio: ≤ 0.25 for the first, ≤ 0.25 for the second.

MTCR and KLIY cannot be ordered by enrichment ratio: ≤ 0.25 for the first, ≤ 0.25 for the second.

HRSF and MRPW cannot be ordered by enrichment ratio: ≤ 0.25 for the first, ≤ 0.25 for the second.

IHAR and AVWF cannot be ordered by enrichment ratio: ≤ 0.25 for the first, ≤ 0.25 for the second.

NLGD and KRAC cannot be ordered by enrichment ratio: ≤ 0.25 for the first, ≤ 0.25 for the second.

TVWC and NTFK cannot be ordered by enrichment ratio: ≤ 0.25 for the first, ≤ 0.25 for the second.

LQWA and HCKP cannot be ordered by enrichment ratio: ≤ 0.25 for the first, ≤ 0.25 for the second.

TNKR and KIPM cannot be ordered by enrichment ratio: ≤ 0.25 for the first, ≤ 0.25 for the second.

VNHV and HGFM cannot be ordered by enrichment ratio: ≤ 0.25 for the first, ≤ 0.25 for the second.

First: IQVM
Second: SMSK
The enrichment ratio of the first is lower: ≤ 0.25 for the first, 2.79 for the second.

LMPW and EINP cannot be ordered by enrichment ratio: ≤ 0.25 for the first, ≤ 0.25 for the second.

FDGI and STPN cannot be ordered by enrichment ratio: ≤ 0.25 for the first, ≤ 0.25 for the second.

LVRK and RGGI cannot be ordered by enrichment ratio: ≤ 0.25 for the first, ≤ 0.25 for the second.

FYGK and WDCT cannot be ordered by enrichment ratio: ≤ 0.25 for the first, ≤ 0.25 for the second.

EFNI and IYVQ cannot be ordered by enrichment ratio: ≤ 0.25 for the first, ≤ 0.25 for the second.

FNYS and APFI cannot be ordered by enrichment ratio: ≤ 0.25 for the first, ≤ 0.25 for the second.

REGE and HSGC cannot be ordered by enrichment ratio: ≤ 0.25 for the first, ≤ 0.25 for the second.

KYLT and PCHA cannot be ordered by enrichment ratio: ≤ 0.25 for the first, ≤ 0.25 for the second.

First: DNGH
Second: SCGI
The enrichment ratio of the first is lower: ≤ 0.25 for the first, 12.6 for the second.

YNED and VHVG cannot be ordered by enrichment ratio: ≤ 0.25 for the first, ≤ 0.25 for the second.

VVFH and WNIK cannot be ordered by enrichment ratio: ≤ 0.25 for the first, ≤ 0.25 for the second.

FNIL and YHAE cannot be ordered by enrichment ratio: ≤ 0.25 for the first, ≤ 0.25 for the second.

FAVQ and INFI cannot be ordered by enrichment ratio: ≤ 0.25 for the first, ≤ 0.25 for the second.

RMIV and KCPH cannot be ordered by enrichment ratio: ≤ 0.25 for the first, ≤ 0.25 for the second.

IGLG and ISEQ cannot be ordered by enrichment ratio: ≤ 0.25 for the first, ≤ 0.25 for the second.

RDKL and NFNF cannot be ordered by enrichment ratio: ≤ 0.25 for the first, ≤ 0.25 for the second.

LSYN and IFPN cannot be ordered by enrichment ratio: ≤ 0.25 for the first, ≤ 0.25 for the second.

HINP and IEIY cannot be ordered by enrichment ratio: ≤ 0.25 for the first, ≤ 0.25 for the second.

Compared with QRHL, ASIE is higher in enrichment ratio: ≤ 0.25 for the first, 0.421 for the second.

NKMC and GART cannot be ordered by enrichment ratio: ≤ 0.25 for the first, ≤ 0.25 for the second.

PLMV and IQEA cannot be ordered by enrichment ratio: ≤ 0.25 for the first, ≤ 0.25 for the second.

VPIK and NQMS cannot be ordered by enrichment ratio: ≤ 0.25 for the first, ≤ 0.25 for the second.

QTKQ and IQMT cannot be ordered by enrichment ratio: ≤ 0.25 for the first, ≤ 0.25 for the second.

CSVS and SCYD cannot be ordered by enrichment ratio: ≤ 0.25 for the first, ≤ 0.25 for the second.

Going from SQIL to YQPL, the enrichment ratio falls from 5.22 to ≤ 0.25.

Compared with ACMV, FTVE is lower in enrichment ratio: 7.12 for the first, ≤ 0.25 for the second.

Going from LVYG to RYIK, the enrichment ratio rises from ≤ 0.25 to 0.387.

VRRN and HKSR cannot be ordered by enrichment ratio: ≤ 0.25 for the first, ≤ 0.25 for the second.

KPYH and IWPH cannot be ordered by enrichment ratio: ≤ 0.25 for the first, ≤ 0.25 for the second.

FEKT and LHEH cannot be ordered by enrichment ratio: ≤ 0.25 for the first, ≤ 0.25 for the second.

LAMC and FKPR cannot be ordered by enrichment ratio: ≤ 0.25 for the first, ≤ 0.25 for the second.

TQTW and HDNI cannot be ordered by enrichment ratio: ≤ 0.25 for the first, ≤ 0.25 for the second.

GWVY and GKRY cannot be ordered by enrichment ratio: ≤ 0.25 for the first, ≤ 0.25 for the second.

YFLT and IADM cannot be ordered by enrichment ratio: ≤ 0.25 for the first, ≤ 0.25 for the second.

RCNK and MSKQ cannot be ordered by enrichment ratio: ≤ 0.25 for the first, ≤ 0.25 for the second.

MDTQ and ESRS cannot be ordered by enrichment ratio: ≤ 0.25 for the first, ≤ 0.25 for the second.

YSHY and RRSK cannot be ordered by enrichment ratio: ≤ 0.25 for the first, ≤ 0.25 for the second.

VLQL and VMFA cannot be ordered by enrichment ratio: ≤ 0.25 for the first, ≤ 0.25 for the second.

NVSC and VPNW cannot be ordered by enrichment ratio: ≤ 0.25 for the first, ≤ 0.25 for the second.

NIII and EVGL cannot be ordered by enrichment ratio: ≤ 0.25 for the first, ≤ 0.25 for the second.

KDYL and WVSF cannot be ordered by enrichment ratio: ≤ 0.25 for the first, ≤ 0.25 for the second.

PYQS and FPAK cannot be ordered by enrichment ratio: ≤ 0.25 for the first, ≤ 0.25 for the second.

Going from RYVL to QHSL, the enrichment ratio rises from ≤ 0.25 to 0.457.

SMFP and GWYN cannot be ordered by enrichment ratio: ≤ 0.25 for the first, ≤ 0.25 for the second.

MASE and FKTR cannot be ordered by enrichment ratio: ≤ 0.25 for the first, ≤ 0.25 for the second.

NYVC and LNWA cannot be ordered by enrichment ratio: ≤ 0.25 for the first, ≤ 0.25 for the second.

QCCL and IRCL cannot be ordered by enrichment ratio: ≤ 0.25 for the first, ≤ 0.25 for the second.

KPGQ and NKGS cannot be ordered by enrichment ratio: ≤ 0.25 for the first, ≤ 0.25 for the second.

FWFD and RRTC cannot be ordered by enrichment ratio: ≤ 0.25 for the first, ≤ 0.25 for the second.

KEPT and KLAN cannot be ordered by enrichment ratio: ≤ 0.25 for the first, ≤ 0.25 for the second.

YLES and VIMS cannot be ordered by enrichment ratio: ≤ 0.25 for the first, ≤ 0.25 for the second.

In the case of PQIP, the enrichment ratio is reported as ≤ 0.25.
